Hit rate of the full screen: of about 150,000 compounds, about 540 (0.36%) showed an effect of 50% or more. Some of the results follow.
Each compound was assayed on Plasmodium falciparum (assay: Primary screen in NF54 nanoGlo assay, in single point, at 2uM, 72h; a lower Z score goes with more inhibition). Conditions: timepoint 72 hour.
Format: functional, Erythrocyte
`C[C@H](Nc1ncccc1-c1nnc(-c2ccc(Cl)cc2)o1)c1ccccn1` was tested, and the “% Inhibition” value was -45% and the Z score was 4.31.
`CCCc1nc(C)c(C(=O)n2nccc2-c2cccc(N)c2)s1` was tested, and the “% Inhibition” value was -18% and the Z score was 1.94.
With `FC(F)(F)c1cccc(NCn2nc(-c3cccnc3)oc2=S)c1` the “% Inhibition” value was -6% and the Z score was 0.71.
For `CCc1nc(C(=O)N2CCO[C@H](C(=O)O)C2)nn1-c1c(Cl)cccc1Cl`, the “% Inhibition” value was -4% and the Z score was 0.78.
`CC(=O)Nc1cnccc1C(=O)N1CC=CCC1` was tested, and the “% Inhibition” value was 5% and the Z score was -0.78.
For `Cc1cc(F)ccc1C[C@H](C)NC(=O)N1Cc2cn[nH]c2CC(C)(C)C1`, the “% Inhibition” value was 2% and the Z score was -0.34.
For `Cc1cc(Cl)ccc1CN(C)CCO`, the “% Inhibition” value was 9% and the Z score was -0.77.
For `C[C@@H](C(=O)N1CCC(c2nc3ccccc3s2)CC1)c1cncnc1`, the “% Inhibition” value was -12% and the Z score was 2.25.
With `CN(Cc1c[nH]nc1-c1ccc(-c2ccccc2)cc1)C[C@H]1COCCO1` the “% Inhibition” value was -3% and the Z score was 0.56.
For `COC(=O)c1cc(C2CC2)nc2c1c(=O)n(CC(=O)Nc1cc(C)ccc1C)c(=O)n2C`, the “% Inhibition” value was 17% and the Z score was -2.37.
With `O=C([C@H]1C[C@@H]1c1ccc(OC(F)F)cc1)N1CCn2ncnc2C1` the “% Inhibition” value was -7% and the Z score was 1.27.
`Cn1c(=O)[nH]c2ccc(C(=O)N3CCN4C(=O)NC[C@H]4C3)cc21` was tested, and the “% Inhibition” value was -6% and the Z score was 1.06.
In the case of `O=C(c1ccnc(C2CC2)n1)N1CCOCc2ccccc21`, the “% Inhibition” value is reported as -8% and the Z score is reported as 1.62.
For `O=C(O)c1ccc(CC(=O)N2CCO[C@H](c3cccs3)C2)cc1`, the “% Inhibition” value was 14% and the Z score was -1.66.
`Cc1ccc(CNC(=O)N2CC[C@H](CC(=O)N(C)Cc3ccccc3)C2)cc1` was tested, and the “% Inhibition” value was 35% and the Z score was -5.02.
With `Cn1nccc1C(=O)Nc1nnc(C2CC2)s1` the “% Inhibition” value was -10% and the Z score was 2.07.
With `Cc1cccc(NC(=O)c2cc(C)nc3c2c(C)nn3-c2ccc(F)cc2)c1` the “% Inhibition” value was 37% and the Z score was -4.14.
`O=C1N(c2ccc(F)cc2)c2ncccc2S(=O)(=O)N1Cc1ccccc1` was tested, and the “% Inhibition” value was -9% and the Z score was 0.89.
For `CN(C)C(=O)[C@@H](c1ccccc1)N1CCc2ccc(S(C)(=O)=O)cc2CC1`, the “% Inhibition” value was -4% and the Z score was 0.44.
In the case of `CC1CN(S(=O)(=O)c2cccc3nsnc23)CC(C)O1` (centres undefined), the “% Inhibition” value is reported as 9% and the Z score is reported as -1.43.
With `Cc1c([C@@H](C)NC(=O)N[C@H]2CCO[C@@H]2c2cnn(C(C)C)c2)oc2ccccc12` the “% Inhibition” value was -3% and the Z score was 0.48.
In the case of `Cc1nc[nH]c1-c1c(-c2ccccc2)ncn1Cc1cc2cc(F)ccc2[nH]1`, the “% Inhibition” value is reported as -5% and the Z score is reported as 0.5.
In the case of `CC(C)C[C@@H](CNC(=O)c1ccc(Cl)cn1)C(=O)O`, the “% Inhibition” value is reported as 1% and the Z score is reported as -0.14.
For `CN(Cc1ccccc1)[C@H]1CCCN(C(=O)CCc2ccc3c(c2)OCO3)C1`, the “% Inhibition” value was -14% and the Z score was 1.62.
For `Cc1ccc(C)c(NS(=O)(=O)c2ccc(OCC(=O)N3CCCC3)cc2)c1`, the “% Inhibition” value was -12% and the Z score was 1.66.
With `O=C(c1ccc(F)cn1)N1CCCCCO1` the “% Inhibition” value was -11% and the Z score was 2.25.
`CC(=O)N1CCN(C(=O)C2C(c3ccc(NC(=O)c4cccs4)cc3)OC(=O)N2Cc2cccc(C)c2)CC1` (centres undefined) was tested, and the “% Inhibition” value was -13% and the Z score was 1.62.
For `Cc1nc(C(=O)NCc2cnn3c2CCCC3)cs1`, the “% Inhibition” value was 2% and the Z score was -0.25.
In the case of `Cc1cc(C)c(CN(Cc2ccccn2)C2CC2)cc1CN1CCN(C)CC1`, the “% Inhibition” value is reported as -16% and the Z score is reported as 1.56.
`CC(C)CC1(CNC(=O)c2ccc(C#N)nc2)CCC1` was tested, and the “% Inhibition” value was 7% and the Z score was -0.97.
`CCc1nc2cc(N3CCC[C@H](C(=O)NC4CC4)C3)cnc2nc1CC` was tested, and the “% Inhibition” value was 2% and the Z score was -0.31.
With `COc1ccc([C@H](CNC(=O)c2cccc(S(=O)(=O)N3CCOCC3)c2)N2CCCCC2)cc1` the “% Inhibition” value was 2% and the Z score was -0.35.
In the case of `Cc1ccc(C#N)c(N2CCC[C@H]2c2ccco2)n1`, the “% Inhibition” value is reported as 4% and the Z score is reported as -0.5.
In the case of `O=C(NC1CC1)C1CN(C(=O)COc2ccccc2F)C1`, the “% Inhibition” value is reported as -12% and the Z score is reported as 1.8.
With `OC[C@H]1CNCCN1CCc1ccc2c(c1)CCO2` the “% Inhibition” value was -11% and the Z score was 1.55.
In the case of `Cc1cc(C)n(CC2CCN(C(=O)CCS(=O)(=O)c3ccccc3)CC2)n1`, the “% Inhibition” value is reported as -8% and the Z score is reported as 1.12.
For `Cc1ccc2oc(N(C)C[C@H](C)C(=O)O)nc2c1`, the “% Inhibition” value was 7% and the Z score was -1.36.
With `OCc1ccc(CN[C@H]2[C@H](O)[C@@H](N3CCN(c4ccccc4)CC3)[C@@H]3OC[C@H]2O3)o1` the “% Inhibition” value was 12% and the Z score was -1.38.
For `COCCn1c(N)c(N(CCCc2ccccc2)Cc2ccccc2)c(=O)[nH]c1=O`, the “% Inhibition” value was -7% and the Z score was 0.91.
In the case of `CCOCCCC(=O)Nc1ncc(C(C)C)s1`, the “% Inhibition” value is reported as -3% and the Z score is reported as 0.61.
`COc1cc2ccncc2cc1OC(=O)c1cncc(C)c1` was tested, and the “% Inhibition” value was -9% and the Z score was 1.28.
`C[C@@]1(C(=O)Nc2cccc3ncccc23)CCCCO1` was tested, and the “% Inhibition” value was -3% and the Z score was 0.49.
For `COc1nc(C)cc(N2CC(O)CC2c2cc(F)ccc2F)n1` (centres undefined), the “% Inhibition” value was -4% and the Z score was 0.79.
With `CCCC1(C2CCN(C(=O)c3cc4ccccc4o3)CC2)NC(=O)N(CCC2CCCN2C)C1=O` (centres undefined) the “% Inhibition” value was 14% and the Z score was -2.01.
With `Cc1cccc(CN2CCOc3c(O)cc(-c4ccc(Cl)cn4)cc3C2)n1` the “% Inhibition” value was -16% and the Z score was 2.16.
`O=C(NC[C@H]1CN(Cc2ccc(Cl)c(F)c2)CC12CCOCC2)N1CCCC1` was tested, and the “% Inhibition” value was -4% and the Z score was 0.81.
With `O=C(Nc1ccnn1Cc1ccc(Cl)c(F)c1)c1ccc(C(=O)O)nc1` the “% Inhibition” value was -1% and the Z score was 0.17.
In the case of `C[C@H]1CCc2nn3ccn(CC(=O)Nc4ccc(F)c(Cl)c4)c(=O)c3c2C1`, the “% Inhibition” value is reported as -18% and the Z score is reported as 1.64.
For `CN(CCc1ccncc1)[C@H]1CS(=O)(=O)C[C@@H]1S(=O)(=O)c1ccccc1`, the “% Inhibition” value was 0% and the Z score was 0.01.
`CC[C@H](NC(=O)COCC1CC1)c1ccc(F)cc1F` was tested, and the “% Inhibition” value was 2% and the Z score was -0.2.
For `CC(=O)NS(=O)(=O)NC1CCC(C(F)(F)F)CC1` (centres undefined), the “% Inhibition” value was -7% and the Z score was 0.71.
With `CCC(=O)Nc1ccc(C(=O)CN2C(=O)N[C@]3(CCc4ccccc4C3)C2=O)cc1` the “% Inhibition” value was -15% and the Z score was 2.63.
For `Cc1cnc(N(C)Cc2nonc2C)nc1-c1ncnn1C`, the “% Inhibition” value was -14% and the Z score was 1.33.
In the case of `COc1ccccc1CNC(=O)CNC(=O)[C@H]1CC[C@H](CNS(=O)(=O)c2ccc(F)cc2)CC1`, the “% Inhibition” value is reported as -11% and the Z score is reported as 1.12.
For `O=C(N[C@@H](CN1CCCCCC1=O)c1ccccc1)C1CCC1`, the “% Inhibition” value was 0% and the Z score was -0.09.
`CN(C)[C@H]1CCC[C@@H]1NS(=O)(=O)Cc1ccccc1` was tested, and the “% Inhibition” value was -4% and the Z score was 0.56.
`CCOc1ccccc1NC(=O)[C@H]1CC(=O)N(c2cccc(-c3noc(C4CCC4)n3)c2)C1` was tested, and the “% Inhibition” value was -13% and the Z score was 1.75.
`Cc1n[nH]c(C)c1CCN(C)C(=O)Nc1cc(F)ccc1Cl` was tested, and the “% Inhibition” value was -17% and the Z score was 2.46.
For `COc1cccc(CNC(=O)Cn2c(=O)c3nncn3c3ncccc32)c1`, the “% Inhibition” value was -15% and the Z score was 1.91.
In the case of `COc1cc(C2C3C(=O)N(c4cccc(C)c4)C(=O)C3ON2c2ccccc2)ccc1OC(=O)c1ccccc1` (centres undefined), the “% Inhibition” value is reported as 6% and the Z score is reported as -0.66.
With `O=C(Nc1cccc(-c2csc(Nc3ccccc3F)n2)c1)c1ccno1` the “% Inhibition” value was -13% and the Z score was 2.43.
With `COCCNC(=O)NCC1(c2cccs2)CC1` the “% Inhibition” value was -12% and the Z score was 1.68.
For `COc1ccc2c(c1)[C@H](C(=O)N(Cc1ccco1)c1ccccn1)CC2`, the “% Inhibition” value was 0% and the Z score was -0.03.
With `Cc1cc(-c2ccc(S(=O)(=O)Nc3ccc(F)c(Cl)c3)s2)[nH]n1` the “% Inhibition” value was -6% and the Z score was 1.09.
With `COc1ccc(-c2noc(-c3cccnc3N[C@@H](C)c3ccc(C)cc3)n2)cc1` the “% Inhibition” value was -4% and the Z score was 0.62.
`Cc1nn(-c2ccc(C(F)(F)F)cc2)c(C)c1[C@@H]1C=C[C@@H](NC(=O)CC(C)(C)CC(=O)O)C1` was tested, and the “% Inhibition” value was -7% and the Z score was 1.12.
`Clc1ccc(COc2ccccc2CNC2CCCC2)c(Cl)c1` was tested, and the “% Inhibition” value was -2% and the Z score was 0.22.
`CCC(CC)NC(=O)CON=C(N)c1ccc(C)cc1` was tested, and the “% Inhibition” value was -1% and the Z score was 0.18.
For `COc1cccc(CN2CCC(F)(C(=O)N3CCCC3)CC2)c1`, the “% Inhibition” value was -12% and the Z score was 1.56.
`CC1(C)CN(C(=O)CCCOc2ccccc2)C[C@]1(C)O` was tested, and the “% Inhibition” value was -12% and the Z score was 2.13.
`O=C(O)c1ncn2c1CO[C@H](c1ccc(Cl)cc1)C2` was tested, and the “% Inhibition” value was 1% and the Z score was -0.1.
With `COc1cccc(OC)c1C(=O)N1CCC([C@H](C)N2CCN(C)CC2)CC1` the “% Inhibition” value was -12% and the Z score was 1.66.
With `COc1ccc(C(=O)NCc2sc(-c3cccs3)nc2C)nn1` the “% Inhibition” value was -9% and the Z score was 1.74.
In the case of `CC(C)c1nnc2c(N3CCC[C@H]3COc3ccccc3)nccn12`, the “% Inhibition” value is reported as -1% and the Z score is reported as 0.18.
For `COc1cc2ncn([C@H]3[C@@H]4OC[C@@H](O4)[C@@H](NCc4cccnc4)[C@@H]3O)c2cc1OC`, the “% Inhibition” value was -9% and the Z score was 1.65.
With `CCn1nc(-c2ccc(C(N)=O)cc2)nc1CCN1CCN(C)CC1` the “% Inhibition” value was 1% and the Z score was -0.1.
In the case of `COc1c(F)c(F)cc(C(=O)NCCn2c(=O)[nH]c3ncccc3c2=O)c1F`, the “% Inhibition” value is reported as -16% and the Z score is reported as 2.72.
`Cc1cnc(C(C)CNC(=O)NCC2Cc3ccccc3O2)s1` (centres undefined) was tested, and the “% Inhibition” value was -8% and the Z score was 0.99.
In the case of `Cc1cc(C(=O)NCC[C@H](O)c2cccs2)no1`, the “% Inhibition” value is reported as -6% and the Z score is reported as 0.89.
In the case of `CO[C@H]1CCN(C2CCN(C(=O)c3ccc4nsnc4c3)CC2)C1`, the “% Inhibition” value is reported as -9% and the Z score is reported as 1.2.
With `C[C@@]1(C(=O)NC2CCCCC2)Cn2c(ccc2-c2ccco2)C(=O)N1Cc1ccc2c(c1)OCO2` the “% Inhibition” value was -16% and the Z score was 1.55.
`Cc1ccccc1N1CCC(N2CCC(Cn3ccnc3)CC2)CC1` was tested, and the “% Inhibition” value was -3% and the Z score was 0.38.

Reference: ChEMBL document CHEMBL4888484, “Replenishing the malaria drug discovery pipeline: Screening and hit evaluation of the MMV Hit Generation Library 1 (HGL1) against asexual blood stage Plasmodium falciparum ,using a nano luciferase reporter read-out” (2022)
